Tested on: HEK293T/16 cells
Test: SEAP-based surrogate killing assay of iCasp9 mutants
Assay type: cell-based, human
Conditions: in words, versus wild type

B1: T317S: chimeric modified Caspase-9 polypeptide (protein)
chain: VDGFGDVGALESLRGNADLAYILSMEPCGHCLIINNVNFCRESGLRTRTGSNIDCEKLRRRFSSLHFMVEVKGDLTAKKMVLALLELARQDHGALDCCVVVILSHGCQASHLQFPGAVYGTDGCPVSVEKIVNIFNGTSCPSLGGKPKLFFIQACGGEQKDHGFEVASTSPEDESPGSNPEPDASPFQEGLRTFDQLDAISSLPTPSDIFVSYSTFPGFVSWRDPKSGSWYVETLDDIFEQWAHSEDLQSLLLRVANAVSVKGIYKQMPGCFNFLRKKLFFKTSASRA
- effect on basal / catalytic activity: can reduce basal activity without a large shift in the IC50

From US20220152100A1, “METHODS FOR CONTROLLED ACTIVATION OR ELIMINATION OF THERAPEUTIC CELLS” (Bellicum Pharmaceuticals, Inc., priority 2014, published 2022)
